The entries are a selection whose mix differs from that of the whole data set. Inconclusive results are not listed. The source made the active and inactive calls. The call rests on the fitted dose curve; in most records, active means well fitted curve in the direction sought with a large enough effect; inconclusive means small, poorly fitted or top-dose-only effect, or effect the other way; inactive means no such curve, though single readings can be large or run the other way.
What follows are compounds tested against Cytochrome P450 2C9 (Homo sapiens) (UniProt P11712) (assay: Cytochrome panel assay with activity outcomes). Details: recombinant CYP, pro-luciferin dealkylation, luminescence, p450-cyp2c9; at 11.4 µM (top of the series).
On the % scale 0 is the no-effect control and ±100 the full control effect.

Chain of UniProt P11712 (P11712 whole entry, looked up): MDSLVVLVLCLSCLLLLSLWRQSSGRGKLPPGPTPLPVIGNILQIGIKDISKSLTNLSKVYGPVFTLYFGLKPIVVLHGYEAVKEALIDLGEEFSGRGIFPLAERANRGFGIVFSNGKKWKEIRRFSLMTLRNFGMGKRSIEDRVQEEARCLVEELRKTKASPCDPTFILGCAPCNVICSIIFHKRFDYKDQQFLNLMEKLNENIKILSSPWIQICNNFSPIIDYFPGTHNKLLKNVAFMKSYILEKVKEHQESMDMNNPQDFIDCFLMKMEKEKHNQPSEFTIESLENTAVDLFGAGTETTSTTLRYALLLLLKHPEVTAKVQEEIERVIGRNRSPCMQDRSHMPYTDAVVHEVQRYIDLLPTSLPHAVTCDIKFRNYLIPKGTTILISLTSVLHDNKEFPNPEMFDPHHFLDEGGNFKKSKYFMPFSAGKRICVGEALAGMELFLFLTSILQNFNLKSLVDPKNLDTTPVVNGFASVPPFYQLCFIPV

Compound | activity, negative = inhibition
CN1[C@@H]2CC[C@H]1CC(OC(=O)[C@@H](O)c1ccccc1)C2 (stereo partly specified) | inactive: 1.96%

— PubChem BioAssay AID1851 (National Center for Advancing Translational Sciences (NCATS), 2009)
